The other results are listed elsewhere or left out. Sequences were assembled here from the parent chain. Inactive controls read about 0.05.
B1: TEV protease; numbered along this chain (parent)
chain: MGESLFKGPRDYNPISSSICHLTNESDGHTTSLYGIGFGPFIITNKHLFRRNNGTLVVQSLHGVFKVKDTTTLQQHLVDGRDMIIIRMPKDFPPFPQKLKFREPQREERICLVTTNFQTKSMSSMVSDTSCTFPSGDGIFWKHWIQTKDGQCGSPLVSTRDGFIVGIHSASNFTNTNNYFTSVPKNFMELLTNQEAQQWVSGWRLNADSVLWGGHKVFMVKPEEPFQPVKEATQL

Variants of: B1
Assay: raw area under fraction-flipped curve 0-4 h after induction (AUC4h, not background-subtracted), DNA-recorder readout of cleavage of the substrate (dimensionless); higher = more cleavage of the substrate by the protease variant
Details: temperature: 34 °C; time window: 0-4 h after rhamnose induction
Protocol: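 In vivo DNA recorder in E. coli TOP10(DE3) ΔrhaA at 34 °C. Each TEVp single-site mutant (parent TEVp 0) is paired with a single-site variant of the 7-mer TEVs (canonical ENLYFQ|S). The substrate sits between flexible linkers in a Bxb1-sfGFP-TEVs-SsrA fusion, so cleavage stabilises Bxb1 and speeds flipping of a recombination array, read by NGS. The value is the raw area under the fraction-flipped curve over 0-4 h after rhamnose induction (AUC4h), with ≥20 reads per time point. It is not background-subtracted; inactive controls average about 0.047.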
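Note: Bxb1 expression induced with 0.2% (w/v) L-rhamnose at OD600 near 0.5, cultures sampled hourly, flipped fraction per protease–substrate barcode pair counted by paired-end Illumina sequencing.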

Variant | area with substrate ENLYFQA | area with substrate ENLYFQC | area with substrate ENLYFQD | area with substrate ENLYFQE | area with substrate ENLYFQF | area with substrate ENLYFQG | area with substrate ENLYFQH | area with substrate ENLYFQI | area with substrate ENLYFQK | area with substrate ENLYFQL | area with substrate ENLYFQM | area with substrate ENLYFQN | area with substrate ENLYFQP | area with substrate ENLYFQQ | area with substrate ENLYFQR | area with substrate ENLYFQS | area with substrate ENLYFQT | area with substrate ENLYFQV | area with substrate ENLYFQW | area with substrate ENLYFQY
MGESLFKGPRDYNPISSSICHLTNESDGHTTSLYGIGFGPFIITNKGLFRRNNGTLVVQSLHGVFKVKDTTTLQQHLVDGRDMIIIRMPKDFPPFPQKLKFREPQREERICLVTTNFQTKSMSSMVSDTSCTFPSGDGIFWKHWIQTKDGQCGSPLVSTRDGFIVGIHSASNFTNTNNYFTSVPKNFMELLTNQEAQQWVSGWRLNADSVLWGGHKVFMVKPEEPFQPVKEATQL [H47G] | 0.0542 | 0.0605 | 0.0551 | 0.0554 | 0.0601 | 0.0598 | 0.0558 | 0.0561 | 0.0605 | 0.0552 | 0.0768 | 0.0546 | 0.0575 | 0.0552 | 0.0648 | 0.0586 | 0.0598 | 0.058 | 0.0486 | 0.0558
MGESLFKGPRDYNPISSSICHLTNESDGHTTSLYGIGFGPFIITWKHLFRRNNGTLVVQSLHGVFKVKDTTTLQQHLVDGRDMIIIRMPKDFPPFPQKLKFREPQREERICLVTTNFQTKSMSSMVSDTSCTFPSGDGIFWKHWIQTKDGQCGSPLVSTRDGFIVGIHSASNFTNTNNYFTSVPKNFMELLTNQEAQQWVSGWRLNADSVLWGGHKVFMVKPEEPFQPVKEATQL [N45W] | 0.0563 | 0.058 | 0.0661 | 0.0341 | 0.0327 | 0.0723 | 0.057 | 0.0496 | 0.0508 | 0.0624 | – | 0.0567 | 0.055 | – | 0.043 | 0.0587 | 0.0529 | 0.0536 | 0.0549 | 0.0852
MGESLFKGPRDYNPISSSICHLTNESDGHTTSLYGIGFGPFIITYKHLFRRNNGTLVVQSLHGVFKVKDTTTLQQHLVDGRDMIIIRMPKDFPPFPQKLKFREPQREERICLVTTNFQTKSMSSMVSDTSCTFPSGDGIFWKHWIQTKDGQCGSPLVSTRDGFIVGIHSASNFTNTNNYFTSVPKNFMELLTNQEAQQWVSGWRLNADSVLWGGHKVFMVKPEEPFQPVKEATQL [N45Y] | 0.0614 | 0.0574 | 0.0676 | 0.0477 | 0.0567 | 0.0495 | 0.0744 | 0.0552 | 0.0501 | 0.0558 | 0.0638 | 0.0526 | 0.0596 | – | 0.0574 | 0.0591 | 0.0538 | – | 0.0619 | 0.052
MGESLFKGPRDYNPISSSICHLTNESDGHTTSLYGIGFGPFIITNKHLFRRNNGQLVVQSLHGVFKVKDTTTLQQHLVDGRDMIIIRMPKDFPPFPQKLKFREPQREERICLVTTNFQTKSMSSMVSDTSCTFPSGDGIFWKHWIQTKDGQCGSPLVSTRDGFIVGIHSASNFTNTNNYFTSVPKNFMELLTNQEAQQWVSGWRLNADSVLWGGHKVFMVKPEEPFQPVKEATQL [T55Q] | 0.0773 | 0.145 | – | – | – | 0.119 | 0.0839 | 0.0637 | 0.0716 | 0.0511 | 0.119 | – | 0.0445 | 0.0659 | 0.0654 | 0.104 | – | – | 0.0635 | 0.0769
MGESLFKGPRDYNPISSSICHLTNESDGHTTSLYGIGFGPFIITNKHDFRRNNGTLVVQSLHGVFKVKDTTTLQQHLVDGRDMIIIRMPKDFPPFPQKLKFREPQREERICLVTTNFQTKSMSSMVSDTSCTFPSGDGIFWKHWIQTKDGQCGSPLVSTRDGFIVGIHSASNFTNTNNYFTSVPKNFMELLTNQEAQQWVSGWRLNADSVLWGGHKVFMVKPEEPFQPVKEATQL [L48D] | 0.0591 | 0.0813 | 0.0495 | – | – | 0.0656 | – | 0.0629 | 0.0575 | 0.056 | 0.0627 | 0.0661 | 0.0557 | 0.0641 | 0.0654 | 0.0613 | 0.0588 | 0.0654 | – | 0.0594
MGESLFKGPRDYNPISSSICHLTNESDGHTTSLYGIGFGPFIITNKHYFRRNNGTLVVQSLHGVFKVKDTTTLQQHLVDGRDMIIIRMPKDFPPFPQKLKFREPQREERICLVTTNFQTKSMSSMVSDTSCTFPSGDGIFWKHWIQTKDGQCGSPLVSTRDGFIVGIHSASNFTNTNNYFTSVPKNFMELLTNQEAQQWVSGWRLNADSVLWGGHKVFMVKPEEPFQPVKEATQL [L48Y] | 0.063 | – | – | 0.0654 | – | 0.0661 | 0.0519 | 0.0571 | – | – | 0.0737 | 0.0519 | – | 0.0528 | 0.0619 | 0.0634 | 0.0645 | 0.0518 | 0.0655 | –
MGESLFKGPRDYNPISSSICHLTNESDGHTTSLYGIGFGPFIITNKHPFRRNNGTLVVQSLHGVFKVKDTTTLQQHLVDGRDMIIIRMPKDFPPFPQKLKFREPQREERICLVTTNFQTKSMSSMVSDTSCTFPSGDGIFWKHWIQTKDGQCGSPLVSTRDGFIVGIHSASNFTNTNNYFTSVPKNFMELLTNQEAQQWVSGWRLNADSVLWGGHKVFMVKPEEPFQPVKEATQL [L48P] | 0.0565 | 0.0546 | 0.0623 | 0.0465 | – | 0.0607 | – | 0.0564 | 0.0595 | 0.0587 | 0.065 | – | 0.0527 | – | 0.0581 | 0.0602 | 0.0578 | 0.0673 | 0.0471 | –
MGESLFKGPRDYNPISSSICHLTNESDGHTTSLYGIGFGPFIITNNHLFRRNNGTLVVQSLHGVFKVKDTTTLQQHLVDGRDMIIIRMPKDFPPFPQKLKFREPQREERICLVTTNFQTKSMSSMVSDTSCTFPSGDGIFWKHWIQTKDGQCGSPLVSTRDGFIVGIHSASNFTNTNNYFTSVPKNFMELLTNQEAQQWVSGWRLNADSVLWGGHKVFMVKPEEPFQPVKEATQL [K46N] | 0.0725 | – | 0.05 | – | 0.0475 | 0.0675 | – | 0.0414 | 0.0612 | – | 0.0554 | – | – | – | 0.0599 | 0.0626 | – | – | – | 0.0573
MGESLFKGPRDYNPISSSICHLTNESDGHTTSLYGIGFGPFIIRNKHLFRRNNGTLVVQSLHGVFKVKDTTTLQQHLVDGRDMIIIRMPKDFPPFPQKLKFREPQREERICLVTTNFQTKSMSSMVSDTSCTFPSGDGIFWKHWIQTKDGQCGSPLVSTRDGFIVGIHSASNFTNTNNYFTSVPKNFMELLTNQEAQQWVSGWRLNADSVLWGGHKVFMVKPEEPFQPVKEATQL [T44R] | 0.0501 | 0.0452 | 0.0516 | – | – | 0.0737 | – | 0.0477 | 0.0451 | 0.0467 | 0.0429 | 0.0411 | 0.0443 | 0.0232 | 0.0417 | 0.0471 | 0.0446 | 0.0472 | 0.0571 | 0.0383

Reference: the supplement of paper PMC12217912
